Substitutions are numbered along the chain they refer to; changes in the protein carry UniProt numbers. The list shows a part of the results.
T1: RBFOX1 RRM (Homo sapiens, UniProt Q9NWB1 109-208)
T1 sequence: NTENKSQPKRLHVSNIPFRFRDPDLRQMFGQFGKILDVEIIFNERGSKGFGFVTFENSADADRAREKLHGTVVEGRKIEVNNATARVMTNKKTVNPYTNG

B1: AGAGGUU (DNA:RNA)
RNA: GGGAGACCGGAAUUCAGAUUGUCCAGAGGUUUUAAAUCCCGUCGUAGCCACCA
DNA 1: CAATCTGAATTCCGGTCTCCC
DNA 2: TGGTGGCTACGACGGGATT
B2: UAAAUGC (DNA:RNA)
RNA: B1 RNA with A25U, G26A, G28A, G29U, U30G, U31C
DNA 1: CAATCTGAATTCCGGTCTCCC
DNA 2: TGGTGGCTACGACGGGATT
B3: GCAUAAC (DNA:RNA)
RNA: B1 RNA with A25G, G26C, G28U, G29A, U30A, U31C
DNA 1: CAATCTGAATTCCGGTCTCCC
DNA 2: TGGTGGCTACGACGGGATT
B4: CGCGCAG (DNA:RNA)
RNA: B1 RNA with A25C, A27C, G29C, U30A, U31G
DNA 1: CAATCTGAATTCCGGTCTCCC
DNA 2: TGGTGGCTACGACGGGATT
B5: CUAAGCU (DNA:RNA)
RNA: B1 RNA with A25C, G26U, G28A, U30C
DNA 1: CAATCTGAATTCCGGTCTCCC
DNA 2: TGGTGGCTACGACGGGATT
B6: UCGCCUA (DNA:RNA)
RNA: B1 RNA with A25U, G26C, A27G, G28C, G29C, U31A
DNA 1: CAATCTGAATTCCGGTCTCCC
DNA 2: TGGTGGCTACGACGGGATT
B7: GGUUGAU (DNA:RNA)
RNA: B1 RNA with A25G, A27U, G28U, U30A
DNA 1: CAATCTGAATTCCGGTCTCCC
DNA 2: TGGTGGCTACGACGGGATT
B8: UCACAUG (DNA:RNA)
RNA: B1 RNA with A25U, G26C, G28C, G29A, U31G
DNA 1: CAATCTGAATTCCGGTCTCCC
DNA 2: TGGTGGCTACGACGGGATT
B9: UCUAACA (DNA:RNA)
RNA: GGGAGACCGGAAUUCAGAUUGUCCUCUAACAUUAAAUCCCGUCGUAGCCACCA
DNA 1: CAATCTGAATTCCGGTCTCCC
DNA 2: TGGTGGCTACGACGGGATT
B10: ACAUUUC (DNA:RNA)
RNA: B1 RNA with G26C, G28U, G29U, U31C
DNA 1: CAATCTGAATTCCGGTCTCCC
DNA 2: TGGTGGCTACGACGGGATT
B11: UUGAACU (DNA:RNA)
RNA: B9 RNA with C26U, U27G, A31U
DNA 1: CAATCTGAATTCCGGTCTCCC
DNA 2: TGGTGGCTACGACGGGATT
B12: AUACAAU (DNA:RNA)
RNA: B1 RNA with G26U, G28C, G29A, U30A
DNA 1: CAATCTGAATTCCGGTCTCCC
DNA 2: TGGTGGCTACGACGGGATT
B13: CUAAUUC (DNA:RNA)
RNA: B1 RNA with A25C, G26U, G28A, G29U, U31C
DNA 1: CAATCTGAATTCCGGTCTCCC
DNA 2: TGGTGGCTACGACGGGATT
B14: CUUCAUU (DNA:RNA)
RNA: B1 RNA with A25C, G26U, A27U, G28C, G29A
DNA 1: CAATCTGAATTCCGGTCTCCC
DNA 2: TGGTGGCTACGACGGGATT
B15: GUCUCGU (DNA:RNA)
RNA: B1 RNA with A25G, G26U, A27C, G28U, G29C, U30G
DNA 1: CAATCTGAATTCCGGTCTCCC
DNA 2: TGGTGGCTACGACGGGATT
B16: UAUGCAG (DNA:RNA)
RNA: B9 RNA with C26A, A28G, A29C, C30A, A31G
DNA 1: CAATCTGAATTCCGGTCTCCC
DNA 2: TGGTGGCTACGACGGGATT
B17: CCCAAGA (DNA:RNA)
RNA: B9 RNA with U25C, U27C, C30G
DNA 1: CAATCTGAATTCCGGTCTCCC
DNA 2: TGGTGGCTACGACGGGATT
B18: GACUUUG (DNA:RNA)
RNA: B1 RNA with A25G, G26A, A27C, G28U, G29U, U31G
DNA 1: CAATCTGAATTCCGGTCTCCC
DNA 2: TGGTGGCTACGACGGGATT
B19: UGAAGCG (DNA:RNA)
RNA: B1 RNA with A25U, G28A, U30C, U31G
DNA 1: CAATCTGAATTCCGGTCTCCC
DNA 2: TGGTGGCTACGACGGGATT
B20: UAUAACG (DNA:RNA)
RNA: B9 RNA with C26A, A31G
DNA 1: CAATCTGAATTCCGGTCTCCC
DNA 2: TGGTGGCTACGACGGGATT
B21: AGGACCC (DNA:RNA)
RNA: B1 RNA with A27G, G28A, G29C, U30C, U31C
DNA 1: CAATCTGAATTCCGGTCTCCC
DNA 2: TGGTGGCTACGACGGGATT
B22: CAGGUAG (DNA:RNA)
RNA: B1 RNA with A25C, G26A, A27G, G29U, U30A, U31G
DNA 1: CAATCTGAATTCCGGTCTCCC
DNA 2: TGGTGGCTACGACGGGATT
B23: UUCAAGA (DNA:RNA)
RNA: B9 RNA with C26U, U27C, C30G
DNA 1: CAATCTGAATTCCGGTCTCCC
DNA 2: TGGTGGCTACGACGGGATT
B24: ACAUUGU (DNA:RNA)
RNA: B1 RNA with G26C, G28U, G29U, U30G
DNA 1: CAATCTGAATTCCGGTCTCCC
DNA 2: TGGTGGCTACGACGGGATT
B25: GGUCAGG (DNA:RNA)
RNA: B9 RNA with U25G, C26G, A28C, C30G, A31G
DNA 1: CAATCTGAATTCCGGTCTCCC
DNA 2: TGGTGGCTACGACGGGATT
B26: GGUGGUG (DNA:RNA)
RNA: B1 RNA with A25G, A27U, U31G
DNA 1: CAATCTGAATTCCGGTCTCCC
DNA 2: TGGTGGCTACGACGGGATT
B27: UGUUAAA (DNA:RNA)
RNA: B9 RNA with C26G, A28U, C30A
DNA 1: CAATCTGAATTCCGGTCTCCC
DNA 2: TGGTGGCTACGACGGGATT
B28: UGUGGUG (DNA:RNA)
RNA: B1 RNA with A25U, A27U, U31G
DNA 1: CAATCTGAATTCCGGTCTCCC
DNA 2: TGGTGGCTACGACGGGATT
B29: ACGUCAU (DNA:RNA)
RNA: B1 RNA with G26C, A27G, G28U, G29C, U30A
DNA 1: CAATCTGAATTCCGGTCTCCC
DNA 2: TGGTGGCTACGACGGGATT
B30: CCCAGUU (DNA:RNA)
RNA: B1 RNA with A25C, G26C, A27C, G28A
DNA 1: CAATCTGAATTCCGGTCTCCC
DNA 2: TGGTGGCTACGACGGGATT
B31: AUUGCCG (DNA:RNA)
RNA: B1 RNA with G26U, A27U, G29C, U30C, U31G
DNA 1: CAATCTGAATTCCGGTCTCCC
DNA 2: TGGTGGCTACGACGGGATT

These binders were tested against T1, RBFOX1 RRM (assay: EMSA; HiTS-Eq, 1 nM pool, 10 min; buffer printed only for the single-RNA assays: 10 mM Tris pH 7.5, 150 mM NaCl, 3.4 mM EDTA, 0.001% NP-40, 30 C). Settings: tags: His6 N-terminal (pET28a); label: 5' 32P.
Method in brief: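 Purified RbFox RRM (wild type or mutant) was equilibrated for 10 min in 50 µL with 1 nM of a 5′-radiolabelled pool of RNA with 7 randomized nucleotides, its flanks annealed to DNA oligonucleotides, across increasing protein concentrations. Free RNA was separated by 8% native PAGE, excised, reverse-transcribed, PCR-barcoded and sequenced on an Illumina HiSeq 2500. Relative association constants came from read-count changes of each variant against the control reaction, normalised to the cognate motif.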

Binder | binding signal
B1 | 0.00979 KA relative to UGCAUGU
B2 | 0.00992 KA relative to UGCAUGU
B3 | 0.00489 KA relative to UGCAUGU
B4 | 0.0125 KA relative to UGCAUGU
B5 | 0.00577 KA relative to UGCAUGU
B6 | 0.00515 KA relative to UGCAUGU
B7 | 0.0204 KA relative to UGCAUGU
B8 | 0.00586 KA relative to UGCAUGU
B9 | 0.00358 KA relative to UGCAUGU
B10 | 0.000869 KA relative to UGCAUGU
B11 | 0.0126 KA relative to UGCAUGU
B12 | 0.00133 KA relative to UGCAUGU
B13 | 0.00382 KA relative to UGCAUGU
B14 | 0.00423 KA relative to UGCAUGU
B15 | 0.0159 KA relative to UGCAUGU
B16 | 0.011 KA relative to UGCAUGU

Binder | binding signal
B17 | 0.00241 KA relative to UGCAUGU
B18 | 0.0242 KA relative to UGCAUGU
B19 | 0.0192 KA relative to UGCAUGU
B20 | 0.00688 KA relative to UGCAUGU
B21 | 0.0139 KA relative to UGCAUGU
B22 | 0.0124 KA relative to UGCAUGU
B23 | 0.00554 KA relative to UGCAUGU
B24 | 0.00737 KA relative to UGCAUGU
B25 | 0.0068 KA relative to UGCAUGU
B26 | 0.028 KA relative to UGCAUGU
B27 | 0.0109 KA relative to UGCAUGU
B28 | 0.0376 KA relative to UGCAUGU
B29 | 0.00209 KA relative to UGCAUGU
B30 | 0.00652 KA relative to UGCAUGU
B31 | 0.0131 KA relative to UGCAUGU

From paper PMC9911399, “Two distinct binding modes provide the RNA-binding protein RbFox with extraordinary sequence specificity”
